Data: PubChem BioAssay AID504332 (National Center for Advancing Translational Sciences (NCATS), 2011)
Hit rate of the full screen: of about 350,000 compounds, about 31,000 (8.9%) were called active. Inconclusive means that the source gave no clear call. Such entries were picked first, then a sample of the others. Calls come from the whole dose curve; as a rule, active = well fitted inhibition curve with a large enough effect; inconclusive = small, poorly fitted or top-dose-only effect; inactive = no such curve, though single readings can be large or run the other way. Potencies beside an inconclusive call are fits to weak or partial responses and may not hold up.

Biological target: Histone-lysine N-methyltransferase EHMT2 (Homo sapiens) (UniProt Q96KQ7)
Sequence of UniProt Q96KQ7 (Q96KQ7 whole entry, looked up): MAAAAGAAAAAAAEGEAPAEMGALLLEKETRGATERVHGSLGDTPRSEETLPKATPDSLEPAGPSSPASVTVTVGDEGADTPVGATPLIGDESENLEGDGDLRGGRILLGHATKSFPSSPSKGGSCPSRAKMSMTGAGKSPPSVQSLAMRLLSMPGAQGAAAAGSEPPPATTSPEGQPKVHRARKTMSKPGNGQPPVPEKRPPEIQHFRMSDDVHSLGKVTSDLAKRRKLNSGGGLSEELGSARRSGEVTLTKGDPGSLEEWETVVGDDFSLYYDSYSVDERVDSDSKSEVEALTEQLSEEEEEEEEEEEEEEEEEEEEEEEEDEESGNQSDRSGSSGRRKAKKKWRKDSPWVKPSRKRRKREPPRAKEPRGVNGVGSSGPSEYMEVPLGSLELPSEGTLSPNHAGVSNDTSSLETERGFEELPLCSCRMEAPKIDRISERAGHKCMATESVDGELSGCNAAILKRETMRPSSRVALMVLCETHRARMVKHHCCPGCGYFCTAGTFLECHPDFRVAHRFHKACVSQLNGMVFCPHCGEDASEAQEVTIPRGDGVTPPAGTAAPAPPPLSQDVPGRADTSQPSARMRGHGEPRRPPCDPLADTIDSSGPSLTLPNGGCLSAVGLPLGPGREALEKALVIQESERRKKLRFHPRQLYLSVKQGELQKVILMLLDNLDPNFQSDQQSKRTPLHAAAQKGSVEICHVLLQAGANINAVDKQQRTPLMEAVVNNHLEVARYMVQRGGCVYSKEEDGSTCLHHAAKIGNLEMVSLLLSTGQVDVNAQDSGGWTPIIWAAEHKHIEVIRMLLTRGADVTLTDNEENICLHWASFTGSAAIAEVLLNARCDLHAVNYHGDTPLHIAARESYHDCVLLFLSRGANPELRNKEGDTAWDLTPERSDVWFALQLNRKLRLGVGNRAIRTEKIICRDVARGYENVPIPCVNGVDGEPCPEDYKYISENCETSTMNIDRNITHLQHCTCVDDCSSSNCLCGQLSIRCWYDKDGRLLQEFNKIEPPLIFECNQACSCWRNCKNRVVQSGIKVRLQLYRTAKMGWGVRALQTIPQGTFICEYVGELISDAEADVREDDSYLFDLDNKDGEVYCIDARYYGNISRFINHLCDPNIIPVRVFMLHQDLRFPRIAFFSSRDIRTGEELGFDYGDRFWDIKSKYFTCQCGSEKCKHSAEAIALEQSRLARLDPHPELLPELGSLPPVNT
Experiment: qHTS Assay for Inhibitors of Histone Lysine Methyltransferase G9a; note: nearly all actives have a fitted effect of over 75% in size
Conditions: G9a H3K9 monomethylation, AlphaScreen, 2 h; activity, negative = inhibition: at 59 µM (top of the series) unless noted
Summary of the method: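 Quantitative HTS format: methyltransferase activity on a biotin-tagged H3K9 peptide is measured by AlphaScreen, using a rabbit anti-monomethyl-H3K9 antibody with streptavidin donor and anti-IgG acceptor beads. Final levels are 20 nM enzyme, 500 nM peptide, 20 uM SAM; 2 h RT.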
% is set by controls: 0 for no effect and ±100 for the full control effect; potency is the fitted concentration of half-maximal effect; tags give direction and shape of the fitted curve.

Row | Compound | activity, negative = inhibition | Potency
1 | O=[N+]([O-])c1ccc(O)c(C=Nc2cccc3ncccc23)c1 | inactive: 13.5% | –
2 | COCCCNC(=O)C1Cc2cc(S(=O)(=O)N3CCCC3)ccc2N1C(C)=O (stereo unspecified) | inactive: 18.3% [at 102 µM] | –
3 | Cc1cccc(C)c1OCCCCc1c(C)n[nH]c1C | – | inconclusive: 28.2 µM [inhibitor, single point]
4 | Clc1ccc(/C=N/c2c(-c3ccco3)nc3ccccn23)cc1 | – | inconclusive: 25.1 µM [inhibitor, single point]
5 | COC(=O)/C(=C(/F)SCC(C)=O)C(F)(F)F | – | active: 15.8 µM
6 | Cc1cc(NC(=O)Cn2c(=O)oc3cc(S(=O)(=O)N4CCCC4)ccc32)ccc1Br | inactive: 2.25% | –
7 | COc1ccccc1Nc1nc(N)nc(CN2CCC(C)CC2)n1 | inactive: -7.43% | –
8 | CCOC(=O)c1cc(CC)sc1/N=C/C1C(=O)CCCC1=O | – | inconclusive: 44.7 µM [inhibitor, partial curve]
9 | O=C(c1cc([N+](=O)[O-])ccc1N1CCOCC1)N1CCN(S(=O)(=O)c2cc(Cl)ccc2Cl)CC1 | – | inconclusive: 44.7 µM [inhibitor, partial curve, poor fit]
10 | O=c1[nH]c(CNCc2cccnc2)nc2ccccc12 | inconclusive: -100% [inhibitor] | –
11 | CCOC(=O)c1c(C)sc(-c2c(-c3cccc(Cl)c3)[nH]c3c2c(=O)n(C)c(=O)n3C)c1O | – | inconclusive: 31.6 µM [inhibitor, partial curve, poor fit]
12 | Cc1cccc(-n2c(=O)cc(N3CCN(c4ccc(F)cc4)CC3)[nH]c2=O)c1 | – | inconclusive: 28.2 µM [inhibitor, single point]
13 | CC(C)(C)n1nnnc1C(c1ccncc1)N1CCCCCC1 (stereo unspecified) | inactive: -23.7% [at 102 µM] | –
14 | CC(C)CC(C(=O)OCC(=O)c1c(N)n(C)c(=O)n(C)c1=O)N1C(=O)c2ccccc2C1=O (stereo unspecified) | – | active: 11.2 µM
15 | Cc1ccc(C(=O)NCCc2c[nH]c3ccccc23)s1 | inactive: -12.4% [at 102 µM] | –
16 | COc1ccc(S(=O)(=O)CCC(=O)Nc2ccc(OC)cc2OC)cc1 | – | active: 10 µM
17 | O=C(O)CN1CCCCC1 | – | inconclusive: 20 µM [inhibitor, partial curve]
18 | O=c1/c(=C/c2ccc(O)cc2)sc2n1CCCN=2 | – | inconclusive: 89.1 µM [inhibitor, partial curve, poor fit]
19 | CCN(CC)CCCN=C(C)C1=C(O)c2ccccc2C1=O | – | inconclusive: 89.1 µM [inhibitor, partial curve, poor fit]
20 | O=C(c1ccc(S(=O)(=O)c2cccc(Cl)c2)c([N+](=O)[O-])c1)N1CCN(c2ccccn2)CC1 | – | inconclusive: 39.8 µM [inhibitor, partial curve, poor fit]
21 | Cc1ccc(OCc2n[nH]c(=S)n2N)cc1C | – | inconclusive: 10 µM [inhibitor, partial curve, poor fit]
22 | Cc1cc(C)n2nc(SCC(=O)N(C)Cc3ccccc3)nc2n1 | inactive: -3.14% [at 12.7 µM] | –
23 | Cc1ccc2c(Br)cc(Br)c(O)c2n1 | – | inconclusive: 2 µM [inhibitor, partial curve, poor fit]

Row | Compound | activity, negative = inhibition | Potency
24 | Cc1ccc(CNC(=O)CCc2cn(Cc3ccc(C)cc3)c3ccccc23)cc1 | inactive: 3.52% | –
25 | O=C(O)Cc1ccc2[nH]c3ccc(CC(=O)O)cc3c2c1 | – | inconclusive: 56.2 µM [inhibitor, partial curve]
26 | COCCCN1Cc2cccc(C(=O)O)c2C1=O | – | inconclusive: 89.1 µM [inhibitor, partial curve, poor fit]
27 | O=C(CSc1nnc(NC(=O)c2ccccc2Cl)s1)Nc1ccc2c(c1)oc1ccccc12 | – | inconclusive: 31.6 µM [inhibitor, single point]
28 | O=C(Nc1ccc(S(=O)(=O)Nc2nccs2)cc1)/C(=C/c1ccccc1Cl)NC(=O)c1ccccc1 | – | inconclusive: 89.1 µM [inhibitor, single point]
29 | CC(C)CN(C(=O)c1cccc(S(=O)(=O)N2CCN(c3ccc(F)cc3)CC2)c1)C1CCS(=O)(=O)C1 (stereo unspecified) | – | inconclusive: 44.7 µM [inhibitor, partial curve, poor fit]
30 | C=Cc1ccc(Cn2ccn(-c3ccc(F)c(F)c3)c(=O)c2=O)cc1 | – | inconclusive: 20 µM [inhibitor, partial curve, poor fit]
31 | CCc1nnc(NC(=O)c2nc3nc(C)cc(C)n3n2)s1 | – | inconclusive: 4.47 µM [inhibitor, single point]
32 | COc1ccc(NC(=O)CCCn2cnc3ccccc3c2=O)cc1 | – | active: 28.2 µM
33 | COc1cccc(NC(=O)c2csnn2)c1 | – | inconclusive: 25.1 µM [inhibitor, partial curve, poor fit]
34 | N#C/C(=C\c1ccco1)c1nc2ccccc2s1 | – | active: 8.91 µM
35 | COc1ccc(N2CCN(CCCNS(=O)(=O)c3c(C)noc3/C=C/N(C)C)CC2)cc1 | – | inconclusive: 28.2 µM [inhibitor, single point]
36 | NS(=O)(=O)c1ccc(CNC(=O)/C=C/c2ccco2)cc1 | – | active: 39.8 µM
37 | CC(C)(C)Cc1nnc(NS(=O)(=O)Cc2ccccc2)s1 | – | inconclusive: 50.1 µM [inhibitor, partial curve, poor fit]
38 | NCCC(=O)NCCc1cnc[nH]1 | – | inactive
39 | CCOc1cc(C(N)=O)cc(Cl)c1OCc1ccccc1 | inactive: -7.18% | –
40 | COc1cc(C)ccc1OCCOc1cc(C)ccc1Cl | – | inconclusive: 2 µM [inhibitor, full curve, poor fit]
41 | Cc1cc(OCc2nn[nH]n2)c2c(C)c(CC(=O)O)c(=O)oc2c1 | – | inconclusive: 89.1 µM [inhibitor, single point]
42 | CCCCc1c(O)nc(SCC(=O)NCC2CCCO2)[nH]c1=O (stereo unspecified) | inactive: 22.6% | –
43 | Cc1cccc(NC(=S)NCC2CCCO2)c1 (stereo unspecified) | – | active: 50.1 µM
44 | CN(C(=O)CCc1nc(-c2ccccc2F)no1)c1ccc(Cl)cc1 | inactive: 13.9% | –
45 | CCc1ccc(C2CC(c3ccccc3)n3ncnc3N2)cc1 (stereo unspecified) | – | active: 79.4 µM
46 | COc1ccc(Cn2c(-c3ccco3)nc3oc4ccccc4c(=O)c3c2=O)cc1 | – | inconclusive: 31.6 µM [inhibitor, partial curve, poor fit]
